Assay results as given in the supplement of paper PMC4604168 (melanoma cell lines).
The list shows a part of the results. Most values come without repeats; read them as rough.

How the values were obtained:
Assay in all cases: cell count relative to DMSO control; melanoma cells; higher = more viable cells
Conditions in all cases: library dose: low library concentration; 72 h
MZ2-MEL = test system: MZ2-MEL
MeWo = test system: MeWo
RPMI7951 = test system: RPMI7951
RVH-421 = test system: RVH-421
SkMel28 = test system: SkMel28
SkMel2 = test system: SkMel2
SkMel30 = test system: SkMel30
SkMel5 = test system: SkMel5
UACC257 = test system: UACC257
UACC62 = test system: UACC62
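Further: cell number obtained by counting DAPI-stained nuclei in high-throughput microscope images with image analysis software, screen run in 1,536-well plates.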

| Compound | cell count (MZ2-MEL) [%] | cell count (MeWo) [%] | cell count (RPMI7951) [%] | cell count (RVH-421) [%] | cell count (SkMel28) [%] | cell count (SkMel2) [%] | cell count (SkMel30) [%] | cell count (SkMel5) [%] | cell count (UACC257) [%] | cell count (UACC62) [%] |
| --- | --- | --- | --- | --- | --- | --- | --- | --- | --- | --- |
| Cc1nc(Nc2ncc(C(=O)Nc3c(C)cccc3Cl)s2)cc(N2CCN(CCO)CC2)n1 [dasatanib] + COc1cc2c(Oc3ccc4[nH]c(C)cc4c3F)ncnc2cc1OCCCN1CCCC1 [cediranib] (first compound 0.004 µM, partner dose 0.4 µM) | 91.8 | 86.6 | 58.5 | 96.5 | 65.8 | 100 | 107 | 72.4 | 41.7 | 83.6 |
| Cc1nc(Nc2ncc(C(=O)Nc3c(C)cccc3Cl)s2)cc(N2CCN(CCO)CC2)n1 [dasatanib] + CC(C)(C)c1cnc(CSc2cnc(NC(=O)C3CCNCC3)s2)o1 [SNS-032] (first compound 0.004 µM, partner dose 0.01 µM) | 72.9 | 91.2 | 57.2 | 74.7 | 70.8 | 102 | 105 | 91.1 | 39.6 | 82.2 |
| NC(=O)Nc1cc(-c2cccc(F)c2)sc1C(=O)N[C@H]1CCCNC1 + C[C@@H]1CCN(C(=O)CC#N)C[C@@H]1N(C)c1ncnc2[nH]ccc12 [CP690550] (first compound 0.02 µM, partner dose 1 µM) | 104 | 111 | 99.1 | 131 | 114 | 110 | 135 | 102 | 137 | 89.8 |
| NC(=O)Nc1cc(-c2cccc(F)c2)sc1C(=O)N[C@H]1CCCNC1 + COc1cc2c(Oc3ccc4[nH]c(C)cc4c3F)ncnc2cc1OCCCN1CCCC1 [cediranib] (first compound 0.02 µM, partner dose 0.4 µM) | 117 | 103 | 82 | 129 | 100 | 105 | 85.5 | 110 | 153 | 94.1 |
| C[C@]1(c2nc3c(C(N)=O)cccc3[nH]2)CCCN1 [Veliparib] + Cn1cncc1[C@@](N)(c1ccc(Cl)cc1)c1ccc2c(c1)c(-c1cccc(Cl)c1)cc(=O)n2C [tipifarnib] (first compound 1.4 µM, partner dose 0.01 µM) | 89.8 | 93 | 109 | 80.9 | 79.2 | 77.4 | 83.2 | 89.4 | 66.3 | 51.1 |
| Cc1nc(Nc2ncc(C(=O)Nc3c(C)cccc3Cl)s2)cc(N2CCN(CCO)CC2)n1 [dasatanib] + O=C(CCCCCCC(=O)Nc1ccccc1)NO [vorinostat] (first compound 0.004 µM, partner dose 0.08 µM) | 85.5 | 84.8 | 68.3 | 92.6 | 58.3 | 98 | 94.6 | 88.7 | 51.9 | 89.3 |
| NC(=O)Nc1cc(-c2cccc(F)c2)sc1C(=O)N[C@H]1CCCNC1 + O=C(O)c1ccc(-c2c[nH]c3ncc(-c4ccccc4)cc23)cc1C1CCCC1 [GSK650394] (first compound 0.02 µM, partner dose 0.16 µM) | 92.2 | 95.2 | 79.3 | 99.4 | 104 | 112 | 120 | 91.9 | 103 | 95.9 |
| OCCn1cc(-c2cnc3nnn(Cc4ccc5ncccc5c4)c3n2)cn1 + COc1cc2c(Oc3ccc4[nH]c(C)cc4c3F)ncnc2cc1OCCCN1CCCC1 [cediranib] (first compound 1 µM, partner dose 0.4 µM) | 96.5 | 93.2 | 101 | 99.1 | 103 | 100 | 114 | 101 | 94 | 96 |
| CN(C)S(=O)(=O)c1ccc2c(c1)/C(=C/c1cc3c([nH]1)CCCC3)C(=O)N2 + NCC(=O)Nc1ccc(-n2nc(C(F)(F)F)cc2-c2ccc3c(ccc4ccccc43)c2)cc1 [OSU03012] (first compound 0.4 µM, partner dose 1 µM) | 108 | 58.2 | 95 | 84.2 | 76.2 | 67.7 | 50.8 | 95.8 | 79.5 | 80.9 |
| CO[C@@H]1[C@H](N(C)C(=O)c2ccccc2)C[C@H]2O[C@]1(C)n1c3ccccc3c3c4c(c5c6ccccc6n2c5c31)C(=O)NC4 [Midostaurin] + NC(=O)Nc1cc(-c2cccc(F)c2)sc1C(=O)N[C@H]1CCCNC1 [AZD7762] (first compound 0.08 µM, partner dose 0.02 µM) | 94.3 | 79.2 | 74.7 | 89.6 | 103 | 97 | 103 | 106 | 94.6 | 97.2 |
| OCCn1cc(-c2cnc3nnn(Cc4ccc5ncccc5c4)c3n2)cn1 + O=S(=O)(c1ccccc1)N(CC(F)(F)F)c1ccc(C(O)(C(F)(F)F)C(F)(F)F)cc1 [T0901317] (first compound 1 µM, partner dose 1.4 µM) | 99.6 | 92.5 | 108 | 95.1 | 84.3 | – | 99.1 | 88.9 | 71.8 | 88.3 |
| CO[C@@H]1[C@H](N(C)C(=O)c2ccccc2)C[C@H]2O[C@]1(C)n1c3ccccc3c3c4c(c5c6ccccc6n2c5c31)C(=O)NC4 [Midostaurin] + COc1ccc(-c2ccc3c(N4CCOCC4)nc(N4C[C@@H](C)O[C@@H](C)C4)nc3n2)cc1CO [KU0063794] (first compound 0.08 µM, partner dose 0.02 µM) | 83.8 | 84.7 | 90.8 | 85 | 72.3 | – | 100 | 96.4 | 83.8 | 97.3 |
| NC(=O)Nc1cc(-c2cccc(F)c2)sc1C(=O)N[C@H]1CCCNC1 + O=c1cc(-c2cccc3c2Sc2ccccc2S3)oc(N2CCOCC2)c1 [KU55933] (first compound 0.02 µM, partner dose 1 µM) | 104 | 103 | 86 | 140 | 101 | – | 119 | 92.2 | 96.2 | 98.1 |
| NC(=O)Nc1cc(-c2cccc(F)c2)sc1C(=O)N[C@H]1CCCNC1 + COc1ccc(-c2ccc3c(N4CCOCC4)nc(N4C[C@@H](C)O[C@@H](C)C4)nc3n2)cc1CO [KU0063794] (first compound 0.02 µM, partner dose 0.02 µM) | 94.3 | 96 | 83.1 | 121 | 102 | – | 98.9 | 109 | 100 | 87.3 |
| OCCn1cc(-c2cnc3nnn(Cc4ccc5ncccc5c4)c3n2)cn1 + O=C(Nc1ccccc1)c1cc([N+](=O)[O-])ccc1Cl [GW9662] (first compound 1 µM, partner dose 2 µM) | 96.9 | 91.6 | 112 | 102 | 105 | – | 96.4 | 93.9 | 96.4 | 106 |
| C=CCn1c(=O)c2cnc(Nc3ccc(N4CCN(C)CC4)cc3)nc2n1-c1cccc(C(C)(C)O)n1 + O=C(O)C(=O)Nc1sc2c(c1C(=O)O)CCNC2 [TCS401] (first compound 0.02 µM, partner dose 1.66667 µM) | 101 | 90.3 | 95.6 | 83.7 | 75.1 | – | 64.6 | 82.3 | 75.2 | 87.6 |
| CN(C)S(=O)(=O)c1ccc2c(c1)/C(=C/c1cc3c([nH]1)CCCC3)C(=O)N2 + c1cc(-c2cnn3cc(-c4ccc(OCCN5CCCCC5)cc4)cnc23)ccn1 [Dorsomorphin] (first compound 0.4 µM, partner dose 0.4 µM) | 106 | 76.6 | 102 | 111 | 84 | – | 91.1 | 84.1 | 77.7 | 92.6 |
| C[C@]1(c2nc3c(C(N)=O)cccc3[nH]2)CCCN1 [Veliparib] + COc1ccc(-c2ccc3c(N4CCOCC4)nc(N4C[C@@H](C)O[C@@H](C)C4)nc3n2)cc1CO [KU0063794] (first compound 1.4 µM, partner dose 0.02 µM) | 94.1 | 91.3 | 82.8 | 92.7 | 88.1 | – | 88.8 | 95.4 | 71.6 | 71.5 |
| CO[C@@H]1[C@H](N(C)C(=O)c2ccccc2)C[C@H]2O[C@]1(C)n1c3ccccc3c3c4c(c5c6ccccc6n2c5c31)C(=O)NC4 [Midostaurin] + COc1cc2ncnc(Nc3ccc(Oc4ccccc4)cc3)c2cc1OC [SrcI1] (first compound 0.08 µM, partner dose 2 µM) | 86.1 | 74.9 | 89 | 100 | 93.7 | – | 93.7 | 92 | 73.9 | 91.4 |
| NCC(=O)Nc1ccc(-n2nc(C(F)(F)F)cc2-c2ccc3c(ccc4ccccc43)c2)cc1 + Oc1cc(-c2nc(-c3ccccc3)[nH]c2-c2ccncc2)ccc1Cl [L779450] (first compound 1 µM, partner dose 0.2 µM) | 78.4 | 56 | 92 | 85.1 | 82.9 | – | 54.7 | 93.2 | 76.2 | 62.4 |
| NC(=O)Nc1cc(-c2cccc(F)c2)sc1C(=O)N[C@H]1CCCNC1 + Oc1cc(-c2nc(-c3ccccc3)[nH]c2-c2ccncc2)ccc1Cl [L779450] (first compound 0.02 µM, partner dose 0.2 µM) | 78 | 96.9 | 103 | 110 | 109 | – | 133 | 111 | 91 | 73 |
| NCC(=O)Nc1ccc(-n2nc(C(F)(F)F)cc2-c2ccc3c(ccc4ccccc43)c2)cc1 + Cc1cc([N+](=O)[O-])ccc1NS(=O)(=O)c1cc(Cl)ccc1Cl [FH535] (first compound 1 µM, partner dose 1 µM) | 88 | 58.1 | 103 | 80.7 | 83.3 | – | 54.2 | 77.9 | 85.2 | 86 |
| CO[C@@H]1[C@H](N(C)C(=O)c2ccccc2)C[C@H]2O[C@]1(C)n1c3ccccc3c3c4c(c5c6ccccc6n2c5c31)C(=O)NC4 [Midostaurin] + CN(C)S(=O)(=O)c1ccc2c(c1)/C(=C/c1cc3c([nH]1)CCCC3)C(=O)N2 [SU6656] (first compound 0.08 µM, partner dose 0.4 µM) | 101 | 77.3 | 96.6 | 82.8 | 82.5 | 85.3 | 79.4 | 82.9 | 89.9 | 80.5 |
